Consider 38 compounds from the supplement of paper PMC9446081.

Molecules are shown by their SMILES. The campaign covered roughly 39,000 compounds. About 220 (0.56%) showed activity. This is one part of the list.
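Also: static incubation at 37 °C against the wild-type strain, values averaged over two biological replicates.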

This test concerns Escherichia coli K-12 BW25113. The test can be described thus: relative growth (OD600 normalised to plate interquartile mean) (fraction); higher = less growth inhibition, active = 0.2 or less. To be noted: 50 µM; LB; incubation time: overnight (16-24 h).
On to `COc1nc(N)nc2c1ncn2[C@@H]1O[C@H](CO)[C@@H](O)[C@@H]1O`, for which the relative growth is inactive: 1.01.
As for `C[C@H](CO)N1C[C@H](C)[C@@H](CN(C)Cc2ccc(Oc3ccccc3)cc2)Oc2cc(-c3ccncc3)ccc2S1(=O)=O`, the relative growth is inactive: 1.01.
The result for `C=CCC[C@H](Cc1ccc(F)cc1)C(=O)OC[C@@H](Cc1c[nH]c2ccccc12)NC(=O)[C@H](CC=C)CC(=O)N(CCO)Cc1ccccc1` reads inactive: 1.11; that for `CO[C@H]1O[C@H](CO)[C@@H](OC(=O)Nc2ccccc2)[C@@H]2OC(=O)[C@H](Cc3cccc(Br)c3)C/C=C/C[C@@H](Cc3cccc(Br)c3)C(=O)O[C@@H]12`, inactive: 0.989; that for `Cc1noc(C)c1NC(=O)Nc1ccc2c(c1)C(=O)N([C@@H](C)CO)C[C@H](C)[C@@H](CN(C)C(=O)C1CCCCC1)OCCCC[C@@H](C)O2`, inactive: 0.998.
The result for `NCC[C@H]1CC[C@@H](NC(=O)Cc2ccncc2)[C@@H](CO)O1` reads inactive: 1.
As to `C[C@@H]1CN([C@H](C)CO)C(=O)c2cc(N(C)C)ccc2O[C@@H](C)CCCCO[C@@H]1CN(C)Cc1ccc(C(=O)Nc2ccccc2N)cc1`, the relative growth is inactive: 0.995.
The result for `C[C@H](CO)N1C[C@H](C)[C@@H](CN(C)C(=O)Nc2ccc3c(c2)OCO3)OCCCC[C@H](C)Oc2ccc(NC(=O)Nc3cccc4ccccc34)cc2C1=O` reads inactive: 1.03.
Consider `C[C@H](O)[C@H](O)[C@@H](O)[C@@H](O)/C=N/NC(=O)c1ccc(C(=O)NO)cc1`, for which the relative growth is inactive: 0.998.
Consider `CN(C)S(=O)(=O)n1nnc2ccccc21`, for which the relative growth was inactive: 0.995.
For `O=C(c1ccccc1F)N1CCNCC1`, the relative growth was inactive: 0.999.
`C[C@H]1CN([C@@H](C)CO)C(=O)Cc2cc(NS(C)(=O)=O)ccc2O[C@@H]1CN(C)S(=O)(=O)c1ccc(Cl)cc1`: the relative growth is inactive: 0.993.
Under `O=C(C[C@@H]1C[C@@H]2c3cc(NC(=O)Nc4ccccc4)ccc3O[C@@H]2[C@H](CO)O1)NCCN1CCCCC1` stands inactive: 0.99.
Take `C[C@@H]1CCCCO[C@@H](CN(C)Cc2ccncc2)[C@@H](C)CN([C@H](C)CO)C(=O)c2cc(NC(=O)C3CCCCC3)ccc2O1`: the relative growth was inactive: 0.982.
With `C[C@H](CO)N1C[C@H](C)[C@H](CN(C)S(=O)(=O)c2ccc(Cl)cc2)Oc2ccc(NC(=O)CCN3CCOCC3)cc2C1=O`, the relative growth is inactive: 1.01.
The result for `C[C@H](CO)N1C[C@H](C)[C@H](CN(C)S(=O)(=O)c2ccc(Oc3ccccc3)cc2)OCc2cn(nn2)CCCC1=O` reads inactive: 0.995; that for `C[C@H](CO)N1C[C@H](C)[C@@H](CN(C)S(=O)(=O)c2ccc(F)cc2)Oc2cc(C#Cc3ccc(F)cc3)ccc2S1(=O)=O`, inactive: 1.03; that for `C[C@H]1CN([C@@H](C)CO)C(=O)c2cccc(NC(=O)Nc3ccc(F)cc3)c2O[C@H]1CN(C)CC1CCCCC1`, inactive: 1.01.
As to `Cc1noc(C)c1NC(=O)Nc1ccc2c(c1)C(=O)N([C@@H](C)CO)C[C@@H](C)[C@H](CN(C)Cc1ccccc1)OCCCC[C@@H](C)O2`, the relative growth was inactive: 1.01.
Under `CN(C)CCOC(C)(c1ccccc1)c1ccccn1.O=C(O)CCC(=O)O` (stereo not drawn) stands inactive: 0.787.
Under `C[C@@H]1CN([C@H](C)CO)C(=O)c2cccc(NC(=O)Nc3ccc(C(F)(F)F)cc3)c2O[C@H]1CN(C)C(=O)Nc1ccccc1` stands inactive: 0.878.
Regarding `Cc1ccc(S[C@]2(C(=O)NCc3ccccc3)CC(=O)N(Cc3cc(C(F)(F)F)cc(C(F)(F)F)c3)[C@@H]2c2ccc(CO)cc2I)cc1`, the relative growth is inactive: 0.987.
As to `COc1cccc(C#Cc2ccc([C@H]3[C@@H](CO)N4C(=O)CN(S(=O)(=O)c5ccccc5C)C[C@H]34)cc2)c1`, the relative growth was inactive: 1.02.
Under `CC(C)NC(=O)Nc1ccc2c(c1)C(=O)N([C@H](C)CO)C[C@H](C)[C@H](CN(C)Cc1ccc(Cl)c(Cl)c1)OCCCC[C@H](C)O2` stands inactive: 0.995; under `CC1CCC2(OC1)OC1CC3C4CCC5CC(O)CCC5(C)C4CCC3(C)C1C2C` (stereo not drawn), inactive: 0.924; under `CCNC(=O)c1cc2c(c(-c3cccc(-c4cc5ccccc5o4)c3)n1)[C@@H](CCO)N(C(=O)NC(C)C)C2`, inactive: 1.03.
Consider `COc1ccc(NC(=O)Nc2ccc3c(c2)C(=O)N([C@@H](C)CO)C[C@H](C)[C@H](CN(C)S(=O)(=O)c2ccc(F)cc2)OCCCC[C@@H](C)O3)cc1`, for which the relative growth was inactive: 1.02.
The result for `CC(C)NC(=O)N(C)C[C@@H]1Oc2c(NC(=O)C3CCOCC3)cccc2C(=O)N([C@H](C)CO)C[C@@H]1C` reads inactive: 0.991.
The result for `C=CC[C@@H](CC(=O)NCCO)C(=O)NC[C@H](OC(=O)[C@@H](CC=C)CC(=O)OC(C)(C)C)c1ccccc1` reads inactive: 0.921; that for `Cc1ccc(S(=O)(=O)N(C)C[C@@H]2Oc3ccc(NC(=O)Nc4cccc5ccccc45)cc3CC(=O)N([C@H](C)CO)C[C@@H]2C)cc1`, inactive: 1.03.
Under `CC(=O)c1ccc2ccccc2c1O` stands inactive: 1; under `COc1ccc(NC(=O)N(C)C[C@@H]2Oc3ccc(NC(=O)CCCN(C)C)cc3C(=O)N([C@H](C)CO)C[C@H]2C)cc1`, inactive: 0.89; under `C[C@H]1CN([C@@H](C)CO)C(=O)c2cc(NC(=O)Nc3cccc4ccccc34)ccc2O[C@@H]1CN(C)Cc1ccc(C(F)(F)F)cc1`, inactive: 1.06.
Consider `CC1=C(/C=C/C(C)=C/C=C/C(C)=C/C=C/C=C(C)/C=C/C=C(C)/C=C/[C@@]23O[C@]2(C)C[C@@H](O)CC3(C)C)C(C)(C)C[C@H](O)C1`, for which the relative growth is inactive: 0.414.
The result for `Cc1ccc(S(=O)(=O)N(C)C[C@@H]2Oc3ncc(-c4ccncc4)cc3C(=O)N([C@H](C)CO)C[C@H]2C)cc1` reads inactive: 1.01.
Regarding `Cc1ccc(S(=O)(=O)Nc2ccc3c(c2)CC(=O)N([C@H](C)CO)C[C@H](C)[C@H](CN(C)CC2CC2)O3)cc1`, the relative growth was inactive: 1.01.
Under `C[C@@H]1CCCCO[C@@H](CN(C)C(=O)Cc2ccccc2)[C@H](C)CN([C@@H](C)CO)C(=O)c2cc(NC(=O)CCCCCC(=O)Nc3ccccc3N)ccc2O1` stands inactive: 0.994.
As for `C[C@H]1CN([C@@H](C)CO)C(=O)Cc2cc(NS(C)(=O)=O)ccc2O[C@H]1CN(C)S(=O)(=O)c1ccc(F)cc1`, the relative growth was inactive: 1.
